The data set concerns the target Escherichia coli (laboratory strain). As to the kind of experiment: barcode share on antibiotic plates over drug-free plates; higher = less susceptible. The protocol:
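A pool of E. coli strains, each edited to carry one amino-acid change in an essential protein, was grown for 48 h on minimal glucose agar with or without antibiotic; strain barcodes were sequenced; mean of two replicates.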

Setting [1] is: antibiotic: carbenicillin, 2× MIC (3.1 µg/mL).
Setting [2] is: antibiotic: gentamicin, 2× MIC (MIC 0.45 µg/mL).

Residue numbers refer to the chain shown, from its start. Names may count otherwise. ± gives the standard deviation of the averaged measurements. Laboratory Escherichia coli strains with one amino-acid change in an essential protein, pooled on minimal glucose agar with carbenicillin or gentamicin at twice the control MIC (plus kanamycin and chloramphenicol for the plasmids), 48 h. Fold change of barcode share against drug-free plates; higher = less susceptible. Active = above 20 in both replicates (the paper's putatively resistant). '<' = one read or none on drug, '>' = one read or none on a drug-free plate. Shares are relative, so most strains fall below 1 when a few take over. Listed are strains with at least 15 reads on both drug-free plates, and hits; most hits rest on fewer reference reads. Replicate rank correlation about 0.5. Edits are read from barcodes.

B1: accA V195A (protein)
chain: MSLNFLDFEQPIAELEAKIDSLTAVSRQDEKLDINIDEEVHRLREKSVELTRKIFADLGAWQIAQLARHPQRPYTLDYVRLAFDEFDELAGDRAYADDKAIVGGIARLDGRPVMIIGHQKGRETKEKIRRNFGMPAPEGYRKALRLMQMAERFKMPIITFIDTPGAYPGVGAEERGQSEAIARNLREMSRLGVPAVCTVIGEGGSGGALAIGVGDKVNMLQYSTYSVISPEGCASILWKSADKAPLAAEAMGIIAPRLKELKLIDSIIPEPLGGAHRNPEAMAASLKAQLLADLADLDVLSTEDLKNRRYQRLMSYGYA
For B1, the “fold change of barcode share” value is, setting by setting: under setting [1], 0.327 ± 0.19; under setting [2], 0.00621 ± 0.0047.

B2: gltX L28A (protein)
chain: MKIKTRFAPSPTGYLHVGGARTALYSWAFARNHGGEFVLRIEDTDLERSTPEAIEAIMDGMNWLSLEWDEGPYYQTKRFDRYNAVIDQMLEEGTAYKCYCSKERLEALREEQMAKGEKPRYDGRCRHSHEHHADDEPCVVRFANPQEGSVVFDDQIRGPIEFSNQELDDLIIRRTDGSPTYNFCVVVDDWDMEITHVIRGEDHINNTPRQINILKALKAPVPVYAHVSMINGDDGKKLSKRHGAVSVMQYRDDGYLPEALLNYLVRLGWSHGDQEIFTREEMIKYFTLNAVSKSASAFNTDKLLWLNHHYINALPPEYVATHLQWHIEQENIDTRNGPQLADLVKLLGERCKTLKEMAQSCRYFYEDFAEFDADAAKKHLRPVARQPLEVVRDKLAAITDWTAENVHHAIQATADELEVGMGKVGMPLRVAVTGAGQSPALDVTVHAIGKTRSIERINKALDFIAERENQQ
In the case of B2, the “fold change of barcode share” value under setting [1] is 0.442 ± 0.043 and the “fold change of barcode share” value under setting [2] amounted to 0.00837 ± 0.01.

B3: gltX L28D (protein)
chain: B2 chain with A28D
Regarding B3, the “fold change of barcode share” value worked out at 0.898 ± 0.1 under setting [1] and 0.00771 ± 0.001 under setting [2].

B4: gltX L28Q (protein)
chain: B2 chain with A28Q
Take B4: the “fold change of barcode share” value turned out to be 0.356 ± 0.12 under setting [1] and 0.00364 ± 0.0029 under setting [2].

B5: gltX F183A (protein)
chain: B2 chain with A28L, F183A
As for B5, the “fold change of barcode share” value worked out at 0.414 ± 0.16 under setting [1] and 0.192 ± 0.27 under setting [2].

B6: gltX F183Q (protein)
chain: B2 chain with A28L, F183Q
Consider B6, for which the “fold change of barcode share” value was determined as 0.239 ± 0.046 under setting [1] and 0.0145 ± 0.004 under setting [2].

B7: gltX L28W (protein)
chain: B2 chain with A28W
For the protein B7, the “fold change of barcode share” value under setting [1] turned out to be 0.415 ± 0.22 and the “fold change of barcode share” value under setting [2] came to 0.00412 ± 0.0047.

B8: glnS I457P (protein)
chain: MSEAEARPTNFIRQIIDEDLASGKHTTVHTRFPPEPNGYLHIGHAKSICLNFGIAQDYKGQCNLRFDDTNPVKEDIEYVESIKNDVEWLGFHWSGNVRYSSDYFDQLHAYAIELINKGLAYVDELTPEQIREYRGTLTQPGKNSPYRDRSVEENLALFEKMRAGGFEEGKACLRAKIDMASPFIVMRDPVLYRIKFAEHHQTGNKWCIYPMYDFTHCISDALEGITHSLCTLEFQDNRRLYDWVLDNITIPVHPRQYEFSRLNLEYTVMSKRKLNLLVTDKHVEGWDDPRMPTISGLRRRGYTAASIREFCKRIGVTKQDNTIEMASLESCIREDLNENAPRAMAVIDPVKLVIENYQGEGEMVTMPNHPNKPEMGSRQVPFSGEIWIDRADFREEANKQYKRLVLGKEVRLRNAYVIKAERVEKDAEGNITTIFCTYDADTLSKDPADGRKVKGVPHWVSAAHALPVEIRLYDRLFSVPNPGAADDFLSVINPESLVIKQGFAEPSLKDAVAGKAFQFEREGYFCLDSRHSTAEKPVFNRTVGLRDTWAKVGE
With B8, the “fold change of barcode share” value under setting [1] came out at 0.401 ± 0.1 and the “fold change of barcode share” value under setting [2] is under 0.00772.

B9: glnS V460A (protein)
chain: B8 chain with P457I, V460A
As for B9, the “fold change of barcode share” value under setting [1] came out at 0.636 ± 0.16 and the “fold change of barcode share” value under setting [2] was 0.00406 ± 0.0031.

B10: glnS V460Q (protein)
chain: B8 chain with P457I, V460Q
As for B10, the “fold change of barcode share” value is, setting by setting: under setting [1], 1.04 ± 0.74; under setting [2], 0.0482 ± 0.038.
